Results taken from PubChem BioAssay (NCATS).
This list was built around the results that the source calls inconclusive (neither active nor inactive); the mix of calls is not that of the screen. For some of these results: Potencies beside an inconclusive call are fits to weak or partial responses and may not hold up. Active and inactive are the calls of the source. The call rests on the fitted dose curve; in most records, active means well fitted curve in the direction sought with a large enough effect; inconclusive means small, poorly fitted or top-dose-only effect, or another doubt; inactive means no such curve, though single readings can be large; an effect the other way counts as inactive or inconclusive.

Assays:
[1] = P-glycoprotein substrates identified in KB-8-5-11 adenocarcinoma cell line, qHTS therapeutic library screen (AID 1346987); further: nearly all actives have a fitted effect of over 65% in size; on activity change, negative = cytotoxicity: on the % scale 0 is the no-effect control and ±100 the full control effect
In short: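 In this qHTS, P-gp-rich KB-8-5-11 cells received library compounds across a concentration range. Viability was quantified by luminescence after 72 h at 37 degree C.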

CRL-7250 = normal cell line; experiment: Cytotoxic Profiling of Annotated Libraries Using Quantitative High-Throughput Screening (AID 1296008); conditions: Five cell lines viability, CellTiter-Glo ATP luminescence, 48-72 h; max response: hits give low values; further: nearly all actives have a fitted effect of over 60% in size; on max response: on the % scale 0 is the no-effect control and ±100 the full control effect
In short: (§1)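 Cells exposed to compounds for 48 or 72 hr at 37 degrees Celsius. Viability read as ATP-coupled luminescence with CellTiter-Glo after 10 min at room temperature.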

KB-3-1 = experiment: as above; conditions: Five cell lines viability, CellTiter-Glo ATP luminescence, 48-72 h; max response: hits give low values
In short: as §1

OV90 = experiment: Primary qHTS to identify gynecologic anti-cancer compounds using libraries of approved drugs and bioactive compounds (AID 1345084); conditions: Gynecologic cancer cell panel viability, ATPlite luminescence, 48 h; series mostly up to 57.5 µM; further: nearly all actives have a fitted effect of over 55% in size; on activity change, negative = cytotoxicity: on the % scale 0 is the no-effect control and ±100 the full control effect
In short: (§2)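 Five-concentration response, 48 h; readout is ATP-driven luciferase luminescence.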

PA-1 = experiment: as above; conditions: Gynecologic cancer cell panel viability, ATPlite luminescence, 48 h; series mostly up to 57.5 µM
In short: as §2

SKOV3 = experiment: as above; conditions: Gynecologic cancer cell panel viability, ATPlite luminescence, 48 h; series mostly up to 57.5 µM
In short: as §2

[2] = test system: Zika virus NS2B-NS3 protease (unlinked complex); experiment: Primary screen GU Rhodamine qHTS for Zika virus inhibitors: Unlinked NS2B-NS3 protease assay (AID 1347159); further: nearly all actives have a fitted effect of over 60% in size
In short: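 Enzyme 25 nM in Tris-HCl pH 8.0 + 0.01% Tween 20; compounds up to 114 microM, 15 min RT dark; + Rhod110 substrate 1.5 microM; read t0 and 15 min; delta fluorescence → % inhibition → 4-parameter Hill fit.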

[3] = Primary qHTS for inhibitors of nuclear receptor binding SET domain protein 2 (NSD2) in an isogenic RCH-ACV NSD2 p.E1099K mutant (9B) (AID 1645876); further: nearly all actives have a fitted effect of over 70% in size
[4] = Primary qHTS for inhibitors of nuclear receptor binding SET domain protein 2 (NSD2) in an RCH-ACV wild type WT cells (2C) (AID 1645877); conditions: activity change, negative = cell killing: at 44.9 µM (top of the series) unless noted; further: nearly all actives have a fitted effect of over 70% in size
[5] = Primary fluorescence-based thiol-reactive (MSTI) qHTS assay for identification of artifact compounds. (AID 1845221);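 further: thiol-reactive compounds lower the probe fluorescence signal; nearly all actives have a fitted effect of over 65% in size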
In short: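 In PBS pH 7.4 with 2% DMSO, each compound met 4 uM MSTI for one hour at ambient temperature, shielded from light, before fluorescence detection.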

CAOV3 = experiment: Primary qHTS to identify gynecologic anti-cancer compounds using libraries of approved drugs and bioactive compounds (AID 1345084); conditions: Gynecologic cancer cell panel viability, ATPlite luminescence, 48 h; activity change, negative = cytotoxicity: at 57.5 µM (top of the series); further: nearly all actives have a fitted effect of over 55% in size
In short: as §2

Hek293T = experiment: as above; conditions: Gynecologic cancer cell panel viability, ATPlite luminescence, 48 h, control line for the selectivity index; activity change, negative = cytotoxicity: at 57.5 µM (top of the series) unless noted
In short: as §2

Tov112D = experiment: as above; conditions: Gynecologic cancer cell panel viability, ATPlite luminescence, 48 h; series mostly up to 57.5 µM
In short: as §2

[6] = test system: Zika virus NS2B-NS3 protease (linked construct); experiment: Primary screen NINDS Rhodamine qHTS for Zika virus inhibitors (AID 1347160); conditions: activity change, negative = inhibition: at 57.1 µM (top of the series) unless noted; further: nearly all actives have a fitted effect of over 55% in size
In short: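 Enzyme (25 nM, linked NS2B-NS3) was preincubated 15 min with compound in 10 mM Tris-HCl pH 8.0, 0.01% Tween 20. Rhodamine110 substrate (1.5 microM) was then added and fluorescence read at start and after 15 min.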

CASKI = experiment: Primary qHTS to identify gynecologic anti-cancer compounds using libraries of approved drugs and bioactive compounds (AID 1345084); conditions: Gynecologic cancer cell panel viability, ATPlite luminescence, 48 h; series mostly up to 57.5 µM; further: nearly all actives have a fitted effect of over 55% in size
In short: as §2

Tov-21-G = experiment: as above; conditions: Gynecologic cancer cell panel viability, ATPlite luminescence, 48 h; activity change, negative = cytotoxicity: at 57.5 µM (top of the series) unless noted
In short: as §2

NIH3T3 = experiment: Cytotoxic Profiling of Annotated Libraries Using Quantitative High-Throughput Screening (AID 1296008); conditions: Five cell lines viability, CellTiter-Glo ATP luminescence, 48-72 h; max response: hits give low values; further: nearly all actives have a fitted effect of over 60% in size; on max response: on the % scale 0 is the no-effect control and ±100 the full control effect
In short: as §1

C33A = experiment: Primary qHTS to identify gynecologic anti-cancer compounds using libraries of approved drugs and bioactive compounds (AID 1345084); conditions: Gynecologic cancer cell panel viability, ATPlite luminescence, 48 h; series mostly up to 57.5 µM; further: nearly all actives have a fitted effect of over 55% in size
In short: as §2

JEG-3 = experiment: as above; conditions: Gynecologic cancer cell panel viability, ATPlite luminescence, 48 h; series mostly up to 57.5 µM
In short: as §2
Potency means the concentration at half of the fitted maximal effect; tags describe the fitted curve by direction and shape.

CC1(C)CC[C@]2(C(=O)O)CC[C@]3(C)C(=CCC4[C@@]5(C)C(=O)C[C@H](O)[C@@](C)(CO)C5CC[C@]43C)[C@@H]2C1 (some centres not stated)
inactive: Potency [1] | max response (CRL-7250) -2.6% | max response (KB-3-1) 8.25% | Potency (OV90) | Potency (SKOV3)
inconclusive: Potency (PA-1) 11.2 µM [rising, single point]

COc1ccc2c(c1)C(C(=O)N(Cc1ccc(N(C)C)cc1)c1ccc(C(C)C)cc1)CCC2 (configuration not stated)
inactive: Potency [2]
inconclusive: Potency [1] 14.6 µM [inhibitor, partial curve] | Potency [3] 25.8 µM [inhibitor, single point] | Potency [4] 23 µM [inhibitor, single point] | Potency [5] 29.9 µM [inhibitor, single point] | Potency (CRL-7250) 20.6 µM [inhibitor, single point] | Potency (KB-3-1) 29.1 µM [inhibitor, single point] | Potency (CAOV3) 39.8 µM [cytotoxic, single point] | Potency (SKOV3) 20 µM [cytotoxic, single point]

C=C1CC2[C@@]3(C)C=CC(=O)C(C)(C)C3=C(O)C(=O)[C@@]2(C)C2(C(=O)OC)C(=O)C(C)OC(=O)[C@@]12C (some centres not stated)
inactive: Potency [5]
inconclusive: Potency [3] 14.2 µM [inhibitor, single point] | Potency (CRL-7250) 8.93 µM [inhibitor, single point] | Potency (KB-3-1) 14.2 µM [inhibitor, single point] | Potency (Hek293T) 11.2 µM [cytotoxic, single point] | Potency (OV90) 17.8 µM [cytotoxic, single point] | Potency (PA-1) 20 µM [cytotoxic, single point] | Potency (SKOV3) 11.2 µM [cytotoxic, single point]

CC(=O)OC(C)(C)/C=C/C(=O)[C@](C)(O)[C@H]1C(O)C[C@@]2(C)[C@@H]3CC=C4[C@@H](C=C(O[C@@H]5O[C@H](CO)[C@@H](O)[C@H](O)[C@H]5O)C(=O)C4(C)C)[C@]3(C)C(=O)C[C@]12C (some centres not stated)
inactive: outcome (CRL-7250) | Potency (Tov112D)
inconclusive: Potency [1] 6.85 µM [inhibitor, single point] | Potency [3] 6.82 µM [inhibitor, single point] | Potency [4] 9.63 µM [inhibitor, single point] | Potency (KB-3-1) 8.62 µM [inhibitor, single point] | Potency (CAOV3) 11.2 µM [cytotoxic, single point] | Potency (SKOV3) 12.6 µM [cytotoxic, single point]

O=C(O)c1ccc(N2C(=O)/C(=C/c3ccc(-c4ccc([N+](=O)[O-])cc4)o3)C=C2c2ccccc2)cc1
inactive: Potency (CASKI) | Potency (Hek293T) | Potency (Tov-21-G)
inconclusive: Potency [1] 18.4 µM [inhibitor, single point] | Potency [2] 2.51 µM [inhibitor, full curve, poor fit] | Potency [3] 23 µM [inhibitor, partial curve] | Potency (CRL-7250) 29.1 µM [inhibitor, single point] | Potency (KB-3-1) 18.4 µM [inhibitor, partial curve, poor fit] | Potency (SKOV3) 11.2 µM [rising, single point]
active: Potency [6] 1.78 µM | Potency [5] 0.423 µM

CC(C)(C)Oc1ccc(OCC2Cc3ccccc3CN2C(=O)c2cccc3ccccc23)cc1 (configuration not stated)
inconclusive: Potency [1] 20.6 µM [inhibitor, partial curve] | Potency (CRL-7250) 29.1 µM [inhibitor, single point] | Potency (KB-3-1) 20.6 µM [inhibitor, single point] | Potency (SKOV3) 10 µM [cytotoxic, partial curve, poor fit]
inactive: Potency [6] | Potency [3] | Potency [4]

CC(=O)OC[C@]12[C@H](OC(C)=O)C(=O)[C@@H]3[C@@H](O)[C@@]14O[C@@]3(C)COC(=O)c1cccnc1[C@@H](C)[C@H](C)C(=O)O[C@@H]([C@H](O)[C@@H]2OC(C)=O)[C@]4(C)O
inactive: Potency (Tov-21-G)
inconclusive: Potency [1] 4.85 µM [inhibitor, single point] | Potency [2] 28.2 µM [inhibitor, single point] | Potency [5] 5 µM [inhibitor, partial curve] | Potency (CRL-7250) 8.62 µM [inhibitor, single point] | Potency (KB-3-1) 9.68 µM [inhibitor, single point]
active: Potency [3] 5.41 µM

CC(C)[C@@](C)(O)[C@@H]1CN(c2nc(-c3[nH]nc4ncccc34)c(F)cc2Cl)CCN1
active: Potency [4] 4.59 µM | Potency (JEG-3) 25.1 µM
inactive: Potency (Tov112D)
inconclusive: Potency [5] 37.7 µM [inhibitor, single point] | Potency (CRL-7250) 23.1 µM [inhibitor, single point] | Potency (NIH3T3) 20.6 µM [inhibitor, single point] | Potency (C33A) 39.8 µM [cytotoxic, single point] | Potency (CAOV3) 39.8 µM [cytotoxic, single point] | Potency (PA-1) 25.1 µM [cytotoxic, single point] | Potency (SKOV3) 39.8 µM [cytotoxic, single point] | Potency (Tov-21-G) 22.4 µM [cytotoxic, single point]
